Values marked as one replicate rest on one cluster of the flow cell; about a third of the high ones do not repeat.
These sequences were tested on ATP (assay: switch fluorescence ratio, 500 uM ATP over buffer (Cy3 cluster intensity, sum of 5 cycles each) (fold (ratio)); higher = stronger signal-on switching upon ATP binding; sequences stand for … in TCGTCGGCAGCGTCAGATGTGTATAAGAGACAGTTTTTTTTTTTTTTTTTTTTTTTTT…TC). Conditions: aptamer strand: ATP DNA aptamer (quencher-CACCTGGGGGAGTATTGCGGAGGAAGG + anchor), 100 nM annealed; ATP concentration: 500 uM; one replicate.
In short: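 Imaging in selection buffer was followed by imaging after 15 min with 500 uM ATP at 22 °C, for Cy3-labelled switching-strand clusters annealed to 100 nM quencher-labelled ATP aptamer on a modified Illumina MiSeq flow-cell. Five of these buffer/ATP cycles ran, separated by NaOH stripping and re-annealing. The fluorescence ratio per cluster is summed target-cycle over summed buffer-cycle Cy3 intensity, averaged per switch-domain sequence; clusters outside 100-1000 RFU were removed.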
Sequence AACGAGGGGG has a switch fluorescence ratio of 0.994.
In the case of AACGAGTTTA, the switch fluorescence ratio is reported as 0.999.
Sequence AACGATTGAG has a switch fluorescence ratio of 1.05.
For AACGCATCGA, the switch fluorescence ratio was 1.17.
AACGCCGCAA gave a switch fluorescence ratio of 2.12.
Work on AACGCGAAAG yielded a switch fluorescence ratio of 1.12.
AACGCGAGCC was tested, and the switch fluorescence ratio was 1.34.
Sequence AACGCGCCTT has a switch fluorescence ratio of 1.02.
Sequence AACGCGGAGT has a switch fluorescence ratio of 1.01.
In the case of AACGCTACTA, the switch fluorescence ratio is reported as 1.55.
In the case of AACGGAAATT, the switch fluorescence ratio is reported as 0.981.
AACGGCGCCG was tested, and the switch fluorescence ratio was 1.01.
With AACGGGAGCA the switch fluorescence ratio was 1.07.
Work on AACGGGCATA yielded a switch fluorescence ratio of 1.05.
For AACGGGTGGA, the switch fluorescence ratio was 1.06.
AACGGTCCGC gave a switch fluorescence ratio of 1.18.
Work on AACGGTCGTA yielded a switch fluorescence ratio of 0.965.
AACGGTTGG showed a switch fluorescence ratio of 0.984.
AACGTAAA was tested, and the switch fluorescence ratio was 1.15.
For AACGTACCCT, the switch fluorescence ratio was 1.68.
Work on AACGTATAAG yielded a switch fluorescence ratio of 1.03.
For AACGTGGGCT, the switch fluorescence ratio was 0.997.
AACGTGTCC was tested, and the switch fluorescence ratio was 1.06.
Sequence AACGTTTAGC has a switch fluorescence ratio of 1.
Work on AACGTTTTGT yielded a switch fluorescence ratio of 0.988.
With AACTAAATTG the switch fluorescence ratio was 0.989.
AACTACATTG showed a switch fluorescence ratio of 1.03.
AACTACGCT was tested, and the switch fluorescence ratio was 1.27.
AACTACTTAT showed a switch fluorescence ratio of 1.88.
Sequence AACTAGAGCA has a switch fluorescence ratio of 0.984.
With AACTAGCTAC the switch fluorescence ratio was 1.42.
With AACTAGGATC the switch fluorescence ratio was 0.974.
In the case of AACTAGGCGA, the switch fluorescence ratio is reported as 1.06.
AACTAGTCAT showed a switch fluorescence ratio of 0.98.
AACTAGTTTG was tested, and the switch fluorescence ratio was 1.
AACTCCTATA showed a switch fluorescence ratio of 1.06.
AACTCTTACA gave a switch fluorescence ratio of 1.
In the case of AACTGACGAG, the switch fluorescence ratio is reported as 1.03.
AACTGAGGTA showed a switch fluorescence ratio of 0.999.
In the case of AACTGAGTAC, the switch fluorescence ratio is reported as 0.961.
With AACTGATGTC the switch fluorescence ratio was 1.02.
AACTGCGCTA was tested, and the switch fluorescence ratio was 1.9.
For AACTGCTGC, the switch fluorescence ratio was 1.05.
AACTGGAAGA showed a switch fluorescence ratio of 0.958.
Work on AACTGGTGCC yielded a switch fluorescence ratio of 1.07.
AACTGTCTTA gave a switch fluorescence ratio of 0.978.
AACTGTTAAT was tested, and the switch fluorescence ratio was 1.01.
For AACTGTTGAC, the switch fluorescence ratio was 1.09.
AACTTACCGC gave a switch fluorescence ratio of 1.34.
In the case of AACTTAGGTT, the switch fluorescence ratio is reported as 1.01.
With AACTTGACGG the switch fluorescence ratio was 1.06.
For AACTTGTGT, the switch fluorescence ratio was 1.05.
Sequence AACTTTCTCT has a switch fluorescence ratio of 1.04.
AAGAAAAATA gave a switch fluorescence ratio of 1.03.
Work on AAGAAAGTTG yielded a switch fluorescence ratio of 1.05.
AAGAAATAGT was tested, and the switch fluorescence ratio was 1.02.
In the case of AAGAACCCTT, the switch fluorescence ratio is reported as 0.985.
AAGAAGCGTA showed a switch fluorescence ratio of 0.976.
In the case of AAGAAGGTCG, the switch fluorescence ratio is reported as 0.922.
In the case of AAGAATAAGC, the switch fluorescence ratio is reported as 0.961.
AAGAATCCCG showed a switch fluorescence ratio of 1.03.
For AAGAATTGA, the switch fluorescence ratio was 1.
With AAGAATTTCC the switch fluorescence ratio was 1.09.
Work on AAGACAAACG yielded a switch fluorescence ratio of 1.03.
For AAGACATAGG, the switch fluorescence ratio was 1.01.
AAGACC gave a switch fluorescence ratio of 1.01.
In the case of AAGACCCTT, the switch fluorescence ratio is reported as 1.04.
AAGACCGATC was tested, and the switch fluorescence ratio was 1.29.
Work on AAGACGGTAC yielded a switch fluorescence ratio of 1.48.
For AAGACGTCTG, the switch fluorescence ratio was 1.02.
With AAGACGTTT the switch fluorescence ratio was 1.04.
AAGAGATGCG gave a switch fluorescence ratio of 0.954.
In the case of AAGAGCAGCG, the switch fluorescence ratio is reported as 1.01.
AAGAGGAACT gave a switch fluorescence ratio of 1.04.
For AAGAGGAGTA, the switch fluorescence ratio was 1.01.
Work on AAGAGTAAAG yielded a switch fluorescence ratio of 0.96.
Work on AAGAGTAACT yielded a switch fluorescence ratio of 1.02.
Sequence AAGAGTATTT has a switch fluorescence ratio of 0.984.
Sequence AAGAGTTCAC has a switch fluorescence ratio of 1.
AAGATAGTTG gave a switch fluorescence ratio of 0.991.
AAGATATTAA was tested, and the switch fluorescence ratio was 1.
AAGATCATAG gave a switch fluorescence ratio of 1.05.
For AAGATCGCAT, the switch fluorescence ratio was 1.13.
Work on AAGATCGGTA yielded a switch fluorescence ratio of 0.979.
For AAGATCTTGG, the switch fluorescence ratio was 0.97.
AAGATGCACC gave a switch fluorescence ratio of 1.03.
AAGATGCGGA showed a switch fluorescence ratio of 0.967.
With AAGATGGACC the switch fluorescence ratio was 1.02.
Sequence AAGATGTTTA has a switch fluorescence ratio of 1.24.
AAGATTGTCC was tested, and the switch fluorescence ratio was 1.
Sequence AAGATTGTGG has a switch fluorescence ratio of 0.939.
AAGATTGTTC gave a switch fluorescence ratio of 1.01.
For AAGCAAGAA, the switch fluorescence ratio was 2.18.
For AAGCAAGTGG, the switch fluorescence ratio was 1.03.
In the case of AAGCACGTTA, the switch fluorescence ratio is reported as 1.22.
Sequence AAGCACTTAT has a switch fluorescence ratio of 1.18.
AAGCAGAACG was tested, and the switch fluorescence ratio was 1.01.
AAGCAGATTG was tested, and the switch fluorescence ratio was 0.986.
Sequence AAGCAGCATT has a switch fluorescence ratio of 1.03.
AAGCAGGTTG gave a switch fluorescence ratio of 1.04.
For AAGCAGTGAT, the switch fluorescence ratio was 0.973.
With AAGCATTGAA the switch fluorescence ratio was 0.99.
Work on AAGCATTTGA yielded a switch fluorescence ratio of 1.
For AAGCCATAAA, the switch fluorescence ratio was 0.962.
With AAGCCCTTGG the switch fluorescence ratio was 1.13.
In the case of AAGCCGGCCC, the switch fluorescence ratio is reported as 0.996.
With AAGCCTCCAC the switch fluorescence ratio was 1.18.
Work on AAGCCTTAGA yielded a switch fluorescence ratio of 1.03.
With AAGCGAAGG the switch fluorescence ratio was 0.962.
AAGCGAAGTG gave a switch fluorescence ratio of 1.05.
For AAGCGAGGTG, the switch fluorescence ratio was 1.01.
Work on AAGCGCACGG yielded a switch fluorescence ratio of 1.05.
With AAGCGCCACG the switch fluorescence ratio was 1.04.
With AAGCGCCCTG the switch fluorescence ratio was 0.998.
Sequence AAGCGGCTAA has a switch fluorescence ratio of 0.997.
With AAGCGGGCGA the switch fluorescence ratio was 1.07.
With AAGCGGTTTA the switch fluorescence ratio was 0.995.
Sequence AAGCGTGAGC has a switch fluorescence ratio of 0.925.
In the case of AAGCTAATTG, the switch fluorescence ratio is reported as 0.982.
AAGCTACAAG was tested, and the switch fluorescence ratio was 1.1.
Work on AAGCTAGGTG yielded a switch fluorescence ratio of 1.56.
With AAGCTAGTTA the switch fluorescence ratio was 0.995.
Work on AAGCTATAGG yielded a switch fluorescence ratio of 1.06.
In the case of AAGCTCACCA, the switch fluorescence ratio is reported as 1.09.
AAGCTGTACC gave a switch fluorescence ratio of 1.17.
With AAGCTGTATC the switch fluorescence ratio was 1.06.
AAGCTTACA was tested, and the switch fluorescence ratio was 1.02.
AAGCTTTCGC showed a switch fluorescence ratio of 0.995.
For AAGGAACATC, the switch fluorescence ratio was 0.999.
AAGGAAGGCG showed a switch fluorescence ratio of 1.02.
For AAGGAAGTTC, the switch fluorescence ratio was 0.933.
AAGGACAAGT gave a switch fluorescence ratio of 1.01.
AAGGACCATC gave a switch fluorescence ratio of 1.02.
AAGGAGATGG was tested, and the switch fluorescence ratio was 1.02.
With AAGGATGATT the switch fluorescence ratio was 1.01.
Sequence AAGGATGCGC has a switch fluorescence ratio of 1.05.
AAGGATTCGA gave a switch fluorescence ratio of 1.
Sequence AAGGATTGCC has a switch fluorescence ratio of 1.01.
AAGGCATAAA was tested, and the switch fluorescence ratio was 0.939.
In the case of AAGGCATTGT, the switch fluorescence ratio is reported as 0.962.
With AAGGCCACTG the switch fluorescence ratio was 0.985.
With AAGGCCAGAT the switch fluorescence ratio was 0.966.
Sequence AAGGCCCGTG has a switch fluorescence ratio of 1.02.
In the case of AAGGCCCTGT, the switch fluorescence ratio is reported as 1.03.
With AAGGCCGGTT the switch fluorescence ratio was 0.992.
With AAGGCGATAA the switch fluorescence ratio was 1.35.
For AAGGCGCCAT, the switch fluorescence ratio was 0.953.
AAGGGAAGGA gave a switch fluorescence ratio of 1.03.
Sequence AAGGGCTTG has a switch fluorescence ratio of 1.03.
For AAGGGGAGA, the switch fluorescence ratio was 1.03.
In the case of AAGGGGGAA, the switch fluorescence ratio is reported as 0.956.
With AAGGGGTTA the switch fluorescence ratio was 1.
With AAGGGTAGGG the switch fluorescence ratio was 1.
AAGGGTCCTG was tested, and the switch fluorescence ratio was 0.988.
Work on AAGGGTCGTA yielded a switch fluorescence ratio of 1.04.
In the case of AAGGTACTGA, the switch fluorescence ratio is reported as 1.03.
With AAGGTATTTA the switch fluorescence ratio was 0.969.
In the case of AAGGTCAAA, the switch fluorescence ratio is reported as 0.965.
AAGGTCAACT showed a switch fluorescence ratio of 0.957.
Sequence AAGGTCCGAA has a switch fluorescence ratio of 1.02.
With AAGGTCCTAG the switch fluorescence ratio was 0.949.
Sequence AAGGTGAGGA has a switch fluorescence ratio of 1.03.
For AAGGTGGGTC, the switch fluorescence ratio was 0.973.
AAGGTTTTAG was tested, and the switch fluorescence ratio was 1.01.
With AAGTAAGTGT the switch fluorescence ratio was 1.06.
In the case of AAGTAATGT, the switch fluorescence ratio is reported as 1.05.
AAGTACTCCC showed a switch fluorescence ratio of 1.37.
AAGTATTGTA was tested, and the switch fluorescence ratio was 0.969.
With AAGTCAACGC the switch fluorescence ratio was 0.968.
In the case of AAGTCCGATG, the switch fluorescence ratio is reported as 1.05.
Work on AAGTCCGCGA yielded a switch fluorescence ratio of 4.09.
For AAGTCCTAGA, the switch fluorescence ratio was 1.
AAGTCGGGCT showed a switch fluorescence ratio of 1.04.
In the case of AAGTCGGTTG, the switch fluorescence ratio is reported as 1.04.
Work on AAGTCTAAGT yielded a switch fluorescence ratio of 1.06.
For AAGTCTAGTT, the switch fluorescence ratio was 0.975.
AAGTCTATCC was tested, and the switch fluorescence ratio was 0.996.
AAGTCTGTGT was tested, and the switch fluorescence ratio was 0.969.
For AAGTCTTATC, the switch fluorescence ratio was 0.968.
AAGTGAAGGA gave a switch fluorescence ratio of 1.02.
Work on AAGTGAGAAT yielded a switch fluorescence ratio of 0.98.
For AAGTGAGCTT, the switch fluorescence ratio was 1.03.
Work on AAGTGAGGAA yielded a switch fluorescence ratio of 0.994.
Work on AAGTGATCGC yielded a switch fluorescence ratio of 0.991.
AAGTGCGCTG showed a switch fluorescence ratio of 1.01.
In the case of AAGTGGGAGT, the switch fluorescence ratio is reported as 0.946.
Sequence AAGTGGTACT has a switch fluorescence ratio of 1.05.
Work on AAGTGGTAGG yielded a switch fluorescence ratio of 0.959.
In the case of AAGTGGTCGC, the switch fluorescence ratio is reported as 0.972.
AAGTGTCGGA was tested, and the switch fluorescence ratio was 0.993.
AAGTGTGGGA showed a switch fluorescence ratio of 0.989.
AAGTGTTTGA showed a switch fluorescence ratio of 1.01.
AAGTTAACAT was tested, and the switch fluorescence ratio was 1.04.
With AAGTTACCGT the switch fluorescence ratio was 1.08.
AAGTTACTAT gave a switch fluorescence ratio of 1.04.
In the case of AAGTTATTAT, the switch fluorescence ratio is reported as 1.02.
Sequence AAGTTCATGT has a switch fluorescence ratio of 0.986.
For AAGTTGCCGG, the switch fluorescence ratio was 1.03.
For AAGTTGTTCG, the switch fluorescence ratio was 1.01.
AATAACATCA gave a switch fluorescence ratio of 1.
AATAACTAAG gave a switch fluorescence ratio of 0.994.

— the supplement of paper PMC10126150
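Note: ATP exposure 15 min at 22 °C before imaging.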
